B1: cAC10-Compound 43(8) (conjugate, chains of the INN, looked up)
heavy: QIQLQQSGPEVVKPGASVKISCKASGYTFTDYYITWVKQKPGQGLEWIGWIYPGSGNTKYNEKFKGKATLTVDTSSSTAFMQLSSLTSEDTAVYFCANYGNYWFAYWGQGTQVTVSA[human IgG1 constant region left out]
light: DIVLTQSPASLAVSLGQRATISCKASQSVDFDGDSYMNWYQQKPGQPPKVLIYAASNLESGIPARFSGSGSGTDFTLNIHPVEEEDAATYYCQQSNEDPWTFGGGTKLEIKRTVAAPSVFIFPPSDEQLKSGTASVVCLLNNFYPREAKVQWKVDNALQSGNSQESVTEQDSKDSTYSLSSTLTLSKADYEKHKVYACEVTHQGLSSPVTKSFNRGEC
modifications: Compound 43 payload, DAR 8
B2: cAC10-Compound 43a(8) (conjugate, chains of the INN, looked up)
heavy: QIQLQQSGPEVVKPGASVKISCKASGYTFTDYYITWVKQKPGQGLEWIGWIYPGSGNTKYNEKFKGKATLTVDTSSSTAFMQLSSLTSEDTAVYFCANYGNYWFAYWGQGTQVTVSA[human IgG1 constant region left out]
light: DIVLTQSPASLAVSLGQRATISCKASQSVDFDGDSYMNWYQQKPGQPPKVLIYAASNLESGIPARFSGSGSGTDFTLNIHPVEEEDAATYYCQQSNEDPWTFGGGTKLEIKRTVAAPSVFIFPPSDEQLKSGTASVVCLLNNFYPREAKVQWKVDNALQSGNSQESVTEQDSKDSTYSLSSTLTLSKADYEKHKVYACEVTHQGLSSPVTKSFNRGEC
modifications: Compound 43a payload, DAR 8
B3: cAC10-Compound 43b(8) (conjugate, chains of the INN, looked up)
heavy: QIQLQQSGPEVVKPGASVKISCKASGYTFTDYYITWVKQKPGQGLEWIGWIYPGSGNTKYNEKFKGKATLTVDTSSSTAFMQLSSLTSEDTAVYFCANYGNYWFAYWGQGTQVTVSA[human IgG1 constant region left out]
light: DIVLTQSPASLAVSLGQRATISCKASQSVDFDGDSYMNWYQQKPGQPPKVLIYAASNLESGIPARFSGSGSGTDFTLNIHPVEEEDAATYYCQQSNEDPWTFGGGTKLEIKRTVAAPSVFIFPPSDEQLKSGTASVVCLLNNFYPREAKVQWKVDNALQSGNSQESVTEQDSKDSTYSLSSTLTLSKADYEKHKVYACEVTHQGLSSPVTKSFNRGEC
modifications: Compound 43b payload, DAR 8

What follows are molecules tested on L428, DELBVR and Karpas299/Karpas299-BVR xenografts (assay: Xenograft models for cAC10 camptothecin ADCs). Settings: single dose i.p.; L428 2 or 6 mg/kg, DELBVR 0.3 or 0.9 mg/kg, Karpas299/Karpas299-BVR 0.5 and 1.5 mg/kg; FIGS. 24-26.
Type: in vivo, mouse
Method: All experiments were conducted in concordance with the Animal Care and Use Committee in a facility fully accredited by the Association for Assessment and Accreditation of Laboratory Animal Care. Efficacy experiments were conducted in the L428, KMH2, Karpas/Karpas-BVR, DelBVR, and Caki-1 xenografts models. Tumor cells, as a cell suspension, were implanted sub-cutaneous in immune-compromised SCID or nude mice. Upon tumor engraftment, mice were randomized to study groups (5 mice per group) when the average tumor volume reached about 100 mm3. The ADC or controls were dosed once via intraperitoneal injection. The average number of drug-linker attached to an antibody is indicated in the parenthesis next to the ADC (also referred to herein as Drug-Antibody Ratio (DAR) number, e.g., DAR4, DAR8, etc.). Tumor volume as a function of time was determined using the formula (L×W2)/2. Animals were euthanized when tumor volumes reached 750 mm3. Mice showing durable regressions were terminated after 10-12 weeks post implant.
Animals were implanted with L428 cells. […] Animals were evaluated for tumor size and in-life signs during the course of the study.
Animals were implanted with Del-brentuximab vedotin resistant (DELBVR) cells. […] Animals were evaluated for tumor size and in-life signs during the course of the study.
Animals were implanted with a 1:1 mixture of CD30+ Karpas299 and CD30− Karpas299-brentuximab vedotin resistant (Karpas299-BVR) cells. […] Animals were evaluated for tumor size and in-life signs during the course of the study.
For B1, the “in vivo anti-tumor activity” value was “displayed in vivo anti-tumor activities”. In the case of B2, the “in vivo anti-tumor activity” value is reported as “displayed in vivo anti-tumor activities”. B3 was tested, and the “in vivo anti-tumor activity” value was “displayed in vivo anti-tumor activities”.

From patent US20240366779A1, “SELECTIVE DRUG RELEASE FROM INTERNALIZED CONJUGATES OF BIOLOGICALLY ACTIVE COMPOUNDS” (priority 2021, published 2024)
